Where two headings read alike, the source gives them in different places.
Assays:
clinical = settings: human, plasma, po, 7.5 mg, AUC(tf), oral single dose 7.5 mg tablet, Mean (% CV), N=18
[1] = for AUC(l) / AUC(tf) / Cmax: Mean (% CV), N=30; for Relative Bioavailability, AUC(l) / Relative Bioavailability, Cmax: log-transformed
[2] = Treatment A: one 5 mg tablet after 10-hour fast
[3] = Treatment B/Treatment A (syrup fasted vs tablet fasted)
[4] = Treatment B: 10 mL syrup (0.5 mg/mL) after 10-hour fast
[5] = Treatment C/Treatment B (syrup fed vs syrup fasted)
[6] = Treatment C: 10 mL syrup (0.5 mg/mL) after high-fat high-caloric breakfast

For `Clc1ccc2c(c1)CCc1cccnc1C2=C1CCNCC1` [desloratadine], which AUC (clinical; FASTED) is on record?
The AUC was 77.5 ng·h/mL.

And the AUC (clinical; FED)?
The AUC was 73.8 ng·h/mL.

Which “AUC(l)” value [1, 2] does the source give for `Oc1cnc2c(c1)CCc1cc(Cl)ccc1C2=C1CCNCC1` [3-OH desloratadine] here?
Its value is 29.0 (24) ng · hr/mL.

And the “AUC(tf)” value [1, 2]?
The value was 27.0 (25) ng · hr/mL.

What about the Cmax [1, 2] of the same compound?
Its Cmax is 1.06 (34) ng/mL.

What about the “Relative Bioavailability, AUC(l)” value [1, 3] of the same compound?
Its value is 94.9%.

And the “Relative Bioavailability, Cmax” value [1, 3]?
Its value is 96.5%.

What about the “AUC(l)” value [1, 4] of the same compound?
Its value is 27.8 (28) ng · hr/mL.

What about the “AUC(tf)” value [1, 4] of the same compound?
The value was 26.0 (28) ng · hr/mL.

What about the Cmax [1, 4] of the same compound?
The Cmax was 1.03 (38) ng/mL.

What about the “Relative Bioavailability, AUC(l)” value [1, 5] of the same compound?
The value was 101%.

And the “Relative Bioavailability, Cmax” value [1, 5]?
The value was 87.2%.

And the “AUC(l)” value [1, 6]?
The value was 28.3 (31) ng · hr/mL.

What about the “AUC(tf)” value [1, 6] of the same compound?
Its value is 25.8 (31) ng · hr/mL.

And the Cmax [1, 6]?
The Cmax was 0.91 (38) ng/mL.
